# Hit rate of the full screen: of about 310,000 compounds, about 2,200 (0.71%) showed an effect of 50% or more. Effects have a minus sign here. This is one part of the list.
# Molecular target: human ether-à-go-go-related gene (hERG) potassium channel (human, UniProt Q12809)
# Test: primary screen, population patch clamp on CHO cells stably expressing hERG
# Sequence of human ether-à-go-go-related gene (hERG) potassium channel (Q12809 whole entry, looked up): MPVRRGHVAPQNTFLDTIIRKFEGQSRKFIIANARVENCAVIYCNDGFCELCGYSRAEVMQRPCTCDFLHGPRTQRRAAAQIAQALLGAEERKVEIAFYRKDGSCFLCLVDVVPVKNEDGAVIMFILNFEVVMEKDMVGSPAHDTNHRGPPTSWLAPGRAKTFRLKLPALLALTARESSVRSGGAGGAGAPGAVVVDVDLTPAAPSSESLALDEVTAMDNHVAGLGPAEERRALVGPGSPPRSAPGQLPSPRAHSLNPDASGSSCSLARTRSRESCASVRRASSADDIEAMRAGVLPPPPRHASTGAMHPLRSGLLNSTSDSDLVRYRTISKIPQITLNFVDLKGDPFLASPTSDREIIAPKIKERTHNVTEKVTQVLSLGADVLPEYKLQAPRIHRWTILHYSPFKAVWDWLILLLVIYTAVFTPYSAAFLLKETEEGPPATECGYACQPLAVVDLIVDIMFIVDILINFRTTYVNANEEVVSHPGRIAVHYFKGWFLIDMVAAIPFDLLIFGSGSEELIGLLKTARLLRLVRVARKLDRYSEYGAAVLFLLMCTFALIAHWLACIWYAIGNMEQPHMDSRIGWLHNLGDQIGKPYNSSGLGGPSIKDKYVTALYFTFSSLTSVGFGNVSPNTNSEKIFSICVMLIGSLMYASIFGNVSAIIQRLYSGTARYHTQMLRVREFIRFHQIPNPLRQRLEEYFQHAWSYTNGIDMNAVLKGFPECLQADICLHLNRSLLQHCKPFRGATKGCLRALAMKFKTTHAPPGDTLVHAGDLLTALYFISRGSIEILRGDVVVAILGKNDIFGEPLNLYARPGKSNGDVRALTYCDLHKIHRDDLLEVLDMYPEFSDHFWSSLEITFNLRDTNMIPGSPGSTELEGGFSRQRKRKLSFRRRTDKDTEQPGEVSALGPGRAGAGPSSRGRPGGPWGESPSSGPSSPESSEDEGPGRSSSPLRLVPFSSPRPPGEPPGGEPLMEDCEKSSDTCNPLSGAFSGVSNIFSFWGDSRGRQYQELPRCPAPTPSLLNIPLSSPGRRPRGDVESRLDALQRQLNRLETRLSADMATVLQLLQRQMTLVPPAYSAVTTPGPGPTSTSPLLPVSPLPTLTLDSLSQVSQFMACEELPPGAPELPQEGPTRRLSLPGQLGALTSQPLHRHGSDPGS
row,Structure (SMILES),"hERG current change (%, negative = inhibition) at 1uM"
1,COc1cc(O)c2c(=O)cc(-c3ccccc3)oc2c1,8.69%
2,Cc1ccccc1Cn1c(-c2ccc(=O)[nH]c2)nc2ccccc21,14%
3,c1cc(N2CCCC2)ccc1C(c1nnnn1C1CCCCC1)N1CCOCC1 (stereo not shown),16.6%
4,Cc1c(C(c2ccc(F)cc2)c2c(C)n(C)n(-c3ccccc3)c2=O)c(=O)n(-c2ccccc2)n1C,18.4%
5,O=[N+]([O-])c1cccc(-c2nnc(-c3ccccc3F)o2)c1,13.8%
6,Cc1cccc(C)c1NC(=O)CN(c1ccccn1)S(=O)(=O)c1ccc(F)cc1,-10.3%
7,O=C(COc1ccc(Br)cc1)NCCCNC(=O)c1cnccn1,5.91%
8,CC(C)(C)c1cc(C(c2cccnc2)N2CCN(CCO)CC2)cc(C(C)(C)C)c1O (stereo not shown),-6.53%
9,C#CCOCCOCCOCCNc1nc(N2CCN(C(=O)C([C@@H](C)CC)n3cc(C(N)COC(=O)C(F)(F)F)nn3)CC2)nc(N2CCN(C(=O)[C@H](CCC(=O)O)n3cc(C(N)CC(C)C)nn3)CC2)n1.Cl (stereo partly shown),17.1%
10,CCn1c(SCC(=O)N2CCN(c3ccccc3)CC2)nnc1-c1ccoc1C,-13.8%
11,Cc1ccc(C2C(C#N)=C(N)N(N(C)C)C3=C2C(=O)CCC3)cc1 (stereo not shown),-11.3%
12,COc1ccc(-c2csc3ncnc(Cl)c23)cc1,9.71%
13,COc1ccc(C(C(=O)NC(C)(C)C)N(C(=O)CCC(=O)Nc2cc(C)on2)c2ccc(C)c(C)c2)cc1 (stereo not shown),8.81%
14,CCC1Sc2ccc(S(=O)(=O)CCC(=O)Nc3ccc(C(=O)OC)cc3)cc2NC1=O (stereo not shown),17.1%
15,CC(C)(C)N(Cc1ccccc1)C(=O)COC(=O)CN1C(=O)NC2(CCCC2)C1=O,12.2%
16,O=C(Nc1ccc(-c2cn3c(n2)SCC3)cc1)c1ccc2ccccc2n1,11.7%
17,CCCCOC(=O)c1cccc(NC(=O)CCC(=O)O)c1,3.29%
18,COc1ccccc1CN(C)S(=O)(=O)c1cccs1,11.6%
19,N=C1S/C(=C\c2ccc(-c3cccc(Cl)c3)o2)C(=O)N1c1nccs1,15%
20,Cc1cccnc1CCNC(=O)CC1C(=O)NCCN1CC1CCCCC1 (stereo not shown),12.5%
21,CCCCNC(=O)CCC(=O)N1CCN(C(c2ccccc2)c2ccccc2)CC1.Cl,5.61%
22,COC(=O)c1cnn(-c2ccccc2)c1N,14%
23,C/C(=N\NC(=O)c1cccc(Cl)c1)c1cccc(NC(=O)C(C)C)c1,5.69%
24,CCC(Sc1nc(=O)cc(N)n1CCc1ccccc1)C(=O)Nc1ccccc1C#N (stereo not shown),11%
25,CS(=O)(=O)c1ccc2nc(N)sc2c1,6.23%
26,CC(NC(=O)Cc1ccc(F)cc1)c1ccc(F)cc1 (stereo not shown),2.92%
27,Br.CCS(=O)CCSC(=N)N (stereo not shown),20.4%
28,Cc1nc2ncnn2c(C)c1CCC(=O)N1CCc2ccccc2C1,-19.5%

row,Structure (SMILES),"hERG current change (%, negative = inhibition) at 1uM"
1,COC(=O)c1ccccc1NC(=O)c1ccc(-c2ccccc2F)o1,5.07%
2,O=C1CC(N2CCN(S(=O)(=O)c3ccccc3)CC2)C(=O)N1c1ccccc1 (stereo not shown),10.9%
3,CCC[C@H]1CCCC/C=C\CCCC(=O)OCCN1C(=O)OC(C)(C)C,11.8%
4,Cc1ccc(CNC(=O)C(=O)NCC2OCCCN2S(=O)(=O)c2cccs2)cc1 (stereo not shown),-5.73%
5,COc1ccccc1NC(=S)NC(=O)C(C)(C)C,3.61%
6,O=[N+]([O-])c1ccccc1/C=N\N1CCN(Cc2ccccc2Cl)CC1,14.5%
7,Cc1noc(C)c1COc1ccccc1C(=O)NC(C)c1ccc(Cl)cc1 (stereo not shown),-3%
8,Cc1ccc(-n2nnc3c(=O)n(CC(=O)N4CCCC4)cnc32)cc1,-11.8%
9,CCN(C(=O)c1cc2ccccc2o1)C12CC3CC(CC(C3)C1)C2,9.26%
10,CCCCc1ccc(NC(=O)c2ccc(N(C)S(C)(=O)=O)cc2)cc1,8.33%
11,CCc1ccc(NC(=O)CN2CC(c3ccccc3)CC2=O)cc1 (stereo not shown),-1.19%
12,Cc1ccc(S(=O)(=O)NC2=NCN(Cc3ccccc3)CN2)cc1,17.6%
13,CCCCOc1ccc(C(=O)NCC(=O)NCC(c2ccc(OC)cc2)N2CCCC2)cc1 (stereo not shown),-1.56%
14,CC(=O)c1c(C)[nH]c(C(=O)OCC(=O)c2c(N)n(C)c(=O)n(C)c2=O)c1C,15.1%
15,CCCCC(=O)Nc1ccc(NC(=S)NC(=O)CC(C)C)cc1OC,-1.19%
16,Cc1cc(C)c2c(n1)sc1c(O)cc(=O)[nH]c12,4.46%
17,CC(C)CNC(=O)c1ccc(Cl)c(N)c1,11.3%
18,Cc1cccc(NS(=O)(=O)c2ccc(-c3ccc(=O)[nH]n3)o2)c1,9.65%
19,CCOc1nc(Nc2ccc(OC)cc2)nc(OCC)n1,4.07%
20,COc1cc(C(=O)NC(CCSC)C(=O)OCC(=O)NC(=O)C2CCCCC2)cc(OC)c1OC (stereo not shown),12.7%
21,Cc1cc(=O)oc2c(C)c(OCC(=O)NCc3ccccn3)ccc12,15%
22,CC(C)C(NC(=O)c1c(F)cccc1F)C(=O)N1CCN(S(=O)(=O)/C=C/c2ccccc2)CC1 (stereo not shown),-0.618%
23,O=C(CCC(=O)c1cccs1)Nc1nc2ccccc2s1,12.9%
24,O=P(CCCCCCCCCP(=O)(c1ccccc1)c1ccccc1)(c1ccccc1)c1ccccc1,-8.02%
25,O=C1CCCC(O)=C1Sc1cc(Cl)c(Cl)cc1Cl,10.1%
26,CC(=O)O.NC(N)=N/N=C/c1ccccc1OC(F)F,1.09%
27,O=C(NCc1nnc(SCC(=O)N2CCCc3ccccc32)o1)c1ccccc1F,10.8%
